Results on two compounds are retold here after PubChem BioAssay (NCATS).

The target in this test is Retinoic acid receptor RXR-alpha (Homo sapiens) (UniProt P19793). Kind of test: qHTS assay for small molecule agonists of retinoid X receptor alpha signaling (AID 588544). Particulars: HEK293T RXRa-UAS-bla, beta-lactamase reporter, 18 h; series mostly up to 76.7 µM. (In qHTS, concentration-response curves come from the screen itself.)

Inconclusive results are not listed. Calls follow the shape of the full dose curve. Some structures have more than one record in an assay (separate samples or runs), and their calls can disagree. Not every entry of the source has a single result; some have several. Only these are listed. There may be further records. Values that stand side by side repeat one measurement across runs, samples, wells, individuals or studies. Brackets tell where a record comes from. A, B and so on number the origins entry by entry.
Potency is read from the fitted curve at half-maximal effect.

Sequence of UniProt P19793 (P19793 whole entry, looked up): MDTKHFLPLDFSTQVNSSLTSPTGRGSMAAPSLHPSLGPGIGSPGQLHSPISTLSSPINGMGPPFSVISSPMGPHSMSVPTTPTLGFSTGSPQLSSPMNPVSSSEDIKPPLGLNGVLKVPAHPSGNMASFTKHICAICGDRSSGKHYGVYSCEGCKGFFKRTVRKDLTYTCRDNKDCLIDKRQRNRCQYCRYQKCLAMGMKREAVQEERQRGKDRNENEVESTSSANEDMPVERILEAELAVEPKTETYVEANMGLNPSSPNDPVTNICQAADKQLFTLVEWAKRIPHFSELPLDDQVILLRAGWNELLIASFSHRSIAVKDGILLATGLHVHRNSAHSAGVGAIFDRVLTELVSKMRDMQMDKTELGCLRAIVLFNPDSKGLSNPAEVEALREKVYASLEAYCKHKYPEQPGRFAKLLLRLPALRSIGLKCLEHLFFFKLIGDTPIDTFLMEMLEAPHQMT

As to `C=CC(=O)NCO`, the Potency result was “active: 39.8 µM [sample A] and inactive [sample B]”.

Turning to `CN(C)C=O`, the Potency entry was “inactive [sample A] and inactive [sample B] and active: 14.1 µM [sample C]”.
